From PubChem BioAssay AID485344 (National Center for Advancing Translational Sciences (NCATS), 2010)
Hit rate of the full screen: of about 340,000 compounds, about 6,900 (2%) were called active. No stated cut-off is given here; in the data, active means inhibition above about 30%; inactive means below that, where a call was filed. This is a selection; strong and weak results do not stand in their true shares. The source gives no active or inactive call for entries shown without one.

Molecular target: D(2) dopamine receptor (Homo sapiens) (UniProt P14416)
Assay: HTS Assay for Allosteric Antagonists of the Human D2 Dopamine Receptor: Primary Screen for Antagonists; further: 0% is about no effect
Settings: HEK293 TREx D2 cells, calcium flux, dopamine EC80; at 10 µM; stronger effect = higher value
Procedure, shortened: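 Inhibition of EC80 dopamine-driven calcium flux, recorded kinetically, defines activity here; cells are a tetracycline-induced HEK293 T-REx line expressing force-coupled D2.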

UniProt P14416, sequence (P14416 whole entry, looked up): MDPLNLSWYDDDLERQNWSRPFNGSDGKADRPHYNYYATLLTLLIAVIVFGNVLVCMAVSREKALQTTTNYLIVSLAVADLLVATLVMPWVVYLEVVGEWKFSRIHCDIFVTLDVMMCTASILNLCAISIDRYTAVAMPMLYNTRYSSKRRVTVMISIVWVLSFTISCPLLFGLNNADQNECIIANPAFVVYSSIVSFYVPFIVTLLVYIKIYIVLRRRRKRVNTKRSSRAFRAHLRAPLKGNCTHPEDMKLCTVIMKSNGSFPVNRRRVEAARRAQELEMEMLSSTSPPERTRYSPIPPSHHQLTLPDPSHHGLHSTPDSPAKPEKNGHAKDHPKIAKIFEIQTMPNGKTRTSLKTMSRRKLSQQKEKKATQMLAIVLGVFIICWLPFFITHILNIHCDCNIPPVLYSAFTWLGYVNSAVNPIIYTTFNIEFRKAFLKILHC

Row | Structure (SMILES) | inhibition
1 | COc1ccc(N2CCN(c3oc(/C=C/c4ccccc4OC)nc3C#N)CC2)cc1 | -1.58%
2 | COc1ccc(NC(=O)C(=O)NCc2ccco2)c(OC)c1 | -0.788%
3 | COc1ccc(C(=O)NC2CC3CCCC(C2)N3Cc2ccccc2)c(OC)c1 (configuration not stated) | active: 86.4%
4 | CCc1ccc(S(=O)(=O)c2nnn3c2nc(NC(C)C)c2cc(Cl)ccc23)cc1 | -2.19%
5 | Cc1cccc(N(CC(=O)N(C)Cc2ccccc2)S(=O)(=O)c2ccccc2)c1C | -24.5%
6 | CCC(=O)N1CCc2cc(Br)cc(S(=O)(=O)N3CCCC(C(=O)Nc4ccc(OC)cc4OC)C3)c21 (configuration not stated) | -17.5%
7 | CC(=O)c1cc(-c2ccccc2)n(CCC(=O)NC2CCCCC2)c1C | -17.8%
8 | CC12CN3CC(c4ccccc4)(CN(C1)C3c1ccc(Cl)cc1)C2=O (configuration not stated) | -11.2%
9 | CCOc1ccc(NC(=O)c2c(NCc3cccs3)sc3c2CCCCC3)cc1 | -23.7%
10 | COC(=O)c1scc(-c2ccccc2)c1S(=O)(=O)Nc1ccc(C)c(Cl)c1 | 8.47%
11 | COc1ccc(C2C=C(c3ccccc3)Nc3nc(NC(=O)/C=C/c4ccccc4OC)nn32)cc1 (configuration not stated) | 13.7%
12 | Cc1cccc(OCC(=O)N(Cc2ccc(N(C)C)cc2)Cc2ccco2)c1C | 6.3%
13 | Cc1ccnc2nc(NC(=O)c3ccccc3Cl)nn12 | 7.2%
14 | COc1ccc(NS(=O)(=O)c2c(C)nc3scc(C)n3c2=O)cc1 | 3.43%
15 | O=C(Nc1ccc2nc(SCC(=O)N3CCOCC3)sc2c1)c1cccc(F)c1 | 11.1%
16 | COc1cccc(NC(=O)CSC2=Nc3ccccc3C3=NC(CC(=O)NCc4ccccc4OC)C(=O)N23)c1 (configuration not stated) | -0.428%
17 | O=c1oc2ccc(Cl)cc2cc1-c1cn2c(n1)sc1ccccc12 | -11.1%
18 | CCOC(=O)N1CCN(S(=O)(=O)N2CCCC(C(=O)NCc3ccc(OC)cc3OC)C2)CC1 (configuration not stated) | 2.73%
19 | CCCCNC(=O)CCSc1nc(-c2ccc3c(c2)OCO3)cc(C(F)(F)F)n1 | 3.88%
20 | O=C(NCCc1ccc(Cl)cc1)c1ccc(CSCc2ccc(Cl)cc2)o1 | 4.94%
21 | CCc1ccccc1NC(=O)Cn1c(=O)n(CCc2ccccc2)c(=O)c2ccccc21 | 4.33%

Row | Structure (SMILES) | inhibition
22 | CCCC(=O)n1nc(-c2cccnc2)nc1NCc1ccccc1 | -12.3%
23 | CCOc1ccc(NC(=O)CCC(=O)N2CCSc3ccccc32)cc1 | -19.2%
24 | COc1ccc(N2CCN(C(=O)Nc3ccccc3Cl)CC2)cc1 | -8.85%
25 | O=C(O)CCn1cnc2onc(-c3ccccc3Cl)c2c1=O | 3.96%
26 | CCC1CCCCN1C(=O)Cn1c(=O)n(CCCCCC(=O)NCc2ccc(F)cc2)c(=O)c2sccc21 (configuration not stated) | 6.12%
27 | Cc1cccn2c(=O)cc(COc3ccc(NC(=O)c4cccc(F)c4)cc3)nc12 | -8.36%
28 | O=C(NCc1ccc(Cl)cc1)c1ccc2c(c1)NC(=O)C(CS(=O)(=O)Cc1ccccc1Cl)N2 (configuration not stated) | -7.88%
29 | O=C(NCc1ccccc1Cl)c1ccc(CSCc2cccc(F)c2)o1 | -9.41%
30 | Cc1ccc(NC(c2nnc(-c3ccccc3)o2)c2ccccc2F)c([N+](=O)[O-])c1 (configuration not stated) | 16.8%
31 | Cc1ccc(-n2nnnc2CNC(=O)c2ccccc2F)cc1C | 11.7%
32 | COc1ccc(-c2cc(C(F)(F)F)n3nc(C(=O)Nc4cccc(C(F)(F)F)c4)c(Br)c3n2)cc1 | -0.331%
33 | COC(=O)c1cnc(N2CCN(c3ccccc3OC)CC2)c2ccccc12 | 3.47%
34 | CCOC(=O)c1ccc(NC(=O)CCn2cnnn2)cc1 | -7.95%
35 | CCOC(=O)c1sc2ccccc2c1S(=O)(=O)NCc1ccc(F)cc1 | -6.62%
36 | COc1cc(/C=C2\SC(=Nc3ccc(Cl)c(C(=O)O)c3)NC2=O)c(Br)c(Br)c1O | active: 37%
37 | CC1=C(c2ccc(Cl)cc2)S(=O)(=O)N=C1N1CCN(c2cccc(C(F)(F)F)c2)CC1 | 10.5%
38 | COc1cc(SC)ccc1C(=O)Nc1nc2ccccc2[nH]1 | active: 33.9%
39 | COc1ccccc1CNC(=O)CCC1N=C2c3ccccc3N=C(SCc3ccccc3Cl)N2C1=O (configuration not stated) | -4.12%
40 | CCSc1nc(-c2ccc(Cl)cc2)nc2c1Cc1c(CO)cnc(C)c1O2 | 6.66%
41 | c1cnc(N2CCN(Cc3c[nH]c4ccccc34)CC2)nc1 | active: 83.4%
42 | Cc1ccc(CNC(=O)C2CCCN(c3nnc(-n4c(C)ccc4C)s3)C2)cc1 (configuration not stated) | 2.88%

Row | Structure (SMILES) | inhibition
43 | COc1ccc(NC(=O)CSc2nc(O)c(C/C=C/c3ccccc3)c(=O)[nH]2)cc1 | -13.3%
44 | COc1ccc(CCNC(=O)CCCCCn2c(=O)[nH]c3cc(OC)c(OC)cc3c2=O)cc1OC | -18.1%
45 | CC(=O)Nc1nnc(SCc2cc(=O)c3cccc(C)c3[nH]2)s1 | 3.27%
46 | CCN(Cc1ccc2c(c1)OCCO2)C(=O)CN1C(=O)NC2(CCCCC2)C1=O | active: 40.7%
47 | CC1=C(C(=O)Nc2ccc(C)cc2C)C(c2cccn2C)n2ncnc2N1 (configuration not stated) | -9.81%
48 | CCC(C)N1CC23C=CC(O2)C(C(=O)OC)C3C1=O (configuration not stated) | active: 30.5%
49 | CC(C)C(=O)Nc1cccc(NC2=NS(=O)(=O)c3ccccc32)c1 | -12.1%
50 | Cc1ccc(C)c(N2CCN(c3nc4ccccc4c4nc(-c5cccnc5)nn34)CC2)c1 | 12%
51 | CCOC(=O)c1cccc(NC(c2nnc(-c3ccccc3)o2)c2ccccc2F)c1 (configuration not stated) | 11.4%
52 | NC(=O)c1noc(C(=O)N(CC(=O)NC2CCCC2)Cc2ccc3c(c2)OCO3)c1N | active: 36.7%
53 | CCc1ccc(C2=CC(c3cccc(Br)c3)n3nnnc3N2)cc1 (configuration not stated) | -7.03%
54 | Cc1c(NC2=C(Cl)C(=O)N(c3ccccc3)C2=O)c(=O)n(-c2ccccc2)n1C | active: 37.8%
55 | C=Cc1ccc(Cn2c(=O)n(-c3ccc(C)cc3)c(=O)c3c2c2cc(OC)ccc2n3C)cc1 | -7.81%
56 | C=CCNC(=O)c1onc(CSc2ccccc2)c1C(=O)O | active: 31.8%
57 | O=C(NCc1ccccc1)C1CCN(C(=O)c2cnn(-c3ccccc3)c2-n2cccc2)CC1 | -14.3%
58 | COc1ccc2cc(C(=O)NCc3ccc4c(c3)CCN4C(=O)c3ccc(C)cc3)[nH]c2c1 | 14%
59 | CCc1ccc(-n2nc(C)c3c(C)cc(=O)n(CC(=O)NCc4ccc(C)cc4)c32)cc1 | -3.55%
60 | CCOc1ccc(NC(=O)Cn2c(=O)n(CC3CCCO3)c(=O)c3ccccc32)cc1 (configuration not stated) | -5.54%
61 | CCc1cc2c(cc3c(=O)n(CC(=O)N4CCN(c5cc(Cl)ccc5C)CC4)nc(CC)n32)s1 | -7.76%
62 | O=C(NCc1cccnc1)C(=O)NCC(c1cccnc1)N1CCN(c2ccccc2)CC1 (configuration not stated) | 5.78%
